Among all 48,000 compounds or so, about 450 (0.94%) were called active. Another 19% or so got no clear call; they are omitted. Calls come from the whole dose curve; as a rule, active = well fitted inhibition curve with a large enough effect; inconclusive = small, poorly fitted or top-dose-only effect; inactive = no such curve, though single readings can be large or run the other way. The list shows a part of the results.
Assay: Primary qHTS for Identification of Small Molecule Inhibitors of Huntingtin Promoter Activity; note: nearly all actives have a fitted effect of over 50% in size
Details: HEK293 HTT promoter firefly luciferase reporter (activity 0% = vehicle and -100% = no light), 24 h; series mostly up to 57.5 µM; activity change, negative = inhibition: at the top concentration
Summary of the method: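 Firefly luciferase signal from promoter-reporter HEK293 cells was scaled between vehicle (0%) and zero RLU (-100%). Compounds were tested at final concentrations of up to 57.5 uM over 24 h at 37 degrees C. PTC124 at 50 uM final served as control inhibitor.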

Activity change, negative = inhibition, inactive:
CCOC(=O)c1sc2ccccc2c1S(=O)(=O)N1CCN(c2cccc(C)c2)C(C)C1 (configuration not stated) -19.4%
CC(C)COc1ccc(C(=O)N2CCCCC2CCN2CCCCC2)cc1 (configuration not stated) -8.4%
COc1ccc(CCNC(=O)c2cnn(-c3cccc(C)c3)c2C2CCN(C(=O)OC(C)(C)C)CC2)cc1OC -11.8%
Cc1cccc(-c2nnn3c2nc(NCc2ccc4c(c2)OCO4)c2ccccc23)c1 -3.62%
COc1cccc2c1ncc1c(-c3ccc(C)cc3)nn(-c3ccc(F)cc3)c12 0%
CC(=O)c1ccc(NC(=O)c2noc3c2CSc2ccccc2-3)cc1 22%
CCc1cc(C(=O)Nc2sc(C)c(CC)c2C#N)no1 38.2%
CCCCOc1cccc(C(=O)Nc2cc(NC(=O)c3ccco3)ccc2OC)c1 -25.5%
Cc1ccc(CNC(=O)c2c(O)nc3cc(C)ccn3c2=O)cc1 -2.04%
Cc1ccc2c(c1)-c1c(cnc3cc(-c4ccc(F)cc4)nn13)CO2 -6.51%
CCc1ccc(C2=C(C)C(N3CCC(C(=O)NCc4ccccc4)CC3)=NS2(=O)=O)cc1 -38.4%
COc1ccc(-c2cnc(C)o2)cc1S(=O)(=O)Nc1c(C)cc(C)cc1C -34.3%
COc1cccc(NC(=O)CCc2c(C)nc3nc(CNC(=O)c4cccc(F)c4)nn3c2C)c1 -3.6%
C#CCOc1ccc(-c2nnc(Nc3ccc(NC(C)=O)cc3)c3ccccc23)cc1 -23.8%
Cc1c(Cl)cccc1NC(=O)C1CCCN(c2ncnc3onc(C)c23)C1 (configuration not stated) -13.9%
CCOC(=O)N1CCC(NC(=O)c2cnn(-c3cccc(F)c3)c2-n2cccc2)CC1 -33.4%
NS(=O)(=O)c1ccc(CCNc2ncnc3c2cnn3-c2cccc(Cl)c2)cc1 -32.2%
O=C(NCc1ccccc1Cl)c1ccc2c(c1)N(Cc1ccccc1)C(=O)CS2 -27.9%
COc1ccc(CCC(=O)NCc2nc3cccnc3n2Cc2ccc(F)cc2)cc1 -24.5%
CC1CCN(S(=O)(=O)c2ccc3c(c2)c(=O)c(C(=O)NC(C)c2ccccc2)cn3C)CC1 (configuration not stated) -34.2%
CN(CC(=O)Nc1ccccc1F)S(=O)(=O)c1ccc2c(c1)c(=O)n(C)c(=O)n2C -2.67%
COc1ccc(CNC(=O)c2cc(=O)[nH]c3ccc(S(=O)(=O)N4CCCC4)cc23)c(OC)c1 -21.9%
CC(=O)c1cccc(NC(=O)C(CC(C)C)NS(=O)(=O)c2ccc3c(c2)CCN3C(C)=O)c1 (configuration not stated) -16.1%
COc1ccc(Cl)cc1NC(=O)c1ccc2c(c1)CCN2S(C)(=O)=O -12.8%
Cc1cc(NC(=O)CSc2nc(-c3ccccc3C)nc3c2c(=O)n(C)c(=O)n3C)no1 -11.7%
CCOc1cc(C(=O)Nc2cccc3cccnc23)cc(OCC)c1OCC -23.5%
Cc1ccc(Nc2nc3ccccc3c3nnc(C)n23)c(C)c1 7.33%
COc1ccc(-c2cc3nc(C)c(CCC(=O)N4CCN(c5ccc(F)cc5)CC4)c(C)n3n2)c(OC)c1 -21.5%
CCCCN(CCCC)CCNC(=O)CN1C(=O)CSc2ccc(S(=O)(=O)N3CCOCC3)cc21 -19.2%
COc1ccccc1OCC(=O)NC1CC(=O)N(c2ccc3c(c2)OCCO3)C1 (configuration not stated) -11.4%
CC(=O)c1cccc(Nc2cc(C)nc3nc(Cc4ccccc4)nn23)c1 -8.46%
COc1ccc(NC(=O)c2c(C)oc3ccc(O)c(CN4CCN(Cc5ccccc5)CC4)c23)cc1Cl -17%
CC(=O)c1cc(-c2ccc(F)cc2)n(CC(=O)NC2CCC(C)CC2)c1C (configuration not stated) -27.8%
CC(=O)c1cccc(NC(=O)Nc2nnc(N3CCCC3)s2)c1 -8.9%
CCOC(=O)c1c(C)n(-c2ccccc2)c2ccc(OC(=O)c3cccc(C)c3)cc12 -18.9% [at 11.5 µM]
CCCOc1ccc(CNC(=O)c2ccc(C)c(-n3c(C)nc4cccnc43)c2)cc1 -18.5%
Cc1oc2ncn(C)c(=O)c2c1C(=O)NCCCN1CCCCC1C (configuration not stated) -13.3%
O=C(Nc1cccc(C(F)(F)F)c1)N1CC2CCCN2c2ccccc21 (configuration not stated) -27.9%
COc1ccc(-n2nc(C(=O)Nc3ccc(Cl)cn3)c3c4ccccc4n(C)c3c2=O)cc1 -7.9%
COc1ccc2cc(-c3nnc(Nc4ccccc4)s3)c(=O)oc2c1 -6.66%
CCN(CC)C(=O)N1CCN(C)CC1 1.68%
Nc1ccc(N=Nc2ccccc2)c(N)n1 29%
Cc1ccccc1C(=O)OCc1cc(=O)n2nc(C(C)C)sc2n1 62%
Cc1ccc(N2CCN(C(=O)c3cnn(-c4ccc(F)cc4F)c3C3CCN(C(=O)OC(C)(C)C)CC3)CC2)c(C)c1 -12.8%
CCN1CCN(C(c2ccc(C)cc2)c2c(O)cc(C)n(Cc3ccco3)c2=O)CC1 (configuration not stated) -5.39%
COc1ccc(-n2nc(C(=O)O)c(=O)n(C)c2=O)cc1 -1.73%
CCc1ccc(S(=O)(=O)c2nnn3c2nc(NCc2ccccc2)c2cc(Cl)ccc23)cc1 -4.05%
CCN1C(=O)C(Cc2nc3ccccc3c(=O)n2C)c2cc(C)ccc21 (configuration not stated) -14.4%
CCCNC(=O)C(Cc1ccccc1)NS(=O)(=O)c1ccc2c(c1)c(=O)n(C)c(=O)n2C (configuration not stated) -6.09%
CCOc1ccc(C(=O)Nc2ccc3c(c2)OCCO3)cc1Br 32.8%
Cc1ccc(-c2csc3ncnc(Nc4ccc(C(=O)O)cc4)c23)cc1 -14.8%
COc1ccccc1-c1nc2cc(NC(=O)c3ccccc3Cl)ccc2o1 37.7%
COc1ccc2c(c1)CCc1c(C(=O)Nc3ccc(OC)cc3OC)noc1-2 -10%
COc1ccccc1NC(=O)c1sc2nc3n(c(=O)c2c1C)N=C(c1cccc(Br)c1)CS3 12.7%
COc1ccc(Cn2c(C(=O)O)c(CNC3CCCCC3)c3ccc(C)cc32)cc1 -2.54%
COc1ccc(OC)c(/C=C(\C#N)c2nc(-c3ccc(F)cc3)cs2)c1 0.359%
COc1ccc(Cl)cc1NC(=O)CN1Cc2ccccc2C1=O -24.2%
Cc1nc(S(=O)(=O)N2CCN(c3ccccc3F)CC2)cn1C -7.39%
Nc1c(-c2nc(-c3ccc4c(c3)OCO4)cs2)c2ccccn2c1C(=O)c1ccc(Cl)cc1 -10.9%
CCOc1ccc(NC(=O)Cc2c[nH]c3ccccc23)cc1 48.3%
CCCC12CN3CC(C)(CN(C1)C3c1ccc(OCc3ccccc3)cc1)C2=O (configuration not stated) -14.1%
Cc1cccc(CNC(=O)CN2C(=O)CSc3c2c(C)nn3-c2ccccc2)c1 -9.6%

— PubChem BioAssay AID1508623 (National Center for Advancing Translational Sciences (NCATS), 2021)
